Laboratory results: PubChem BioAssay (NCI)
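Five concentrations, 48 hours, 96-well plates. GI50: concentration for 50% inhibition of growth. TGI denotes the concentration required for complete inhibition of growth.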

Test system: NCI-H322M lung
Experiment: NCI tumour cell line growth inhibition, 48 h

Structure (SMILES) | GI50 | TGI
C#CCCCN(CCNc1ccnc2cc(Cl)ccc12)C(=O)CCC(=O)O[C@@H]1O[C@@H]2OC3(C)CC[C@H]4[C@H](C)CC[C@@H]([C@H]1C)[C@@]24OO3 | > 11.5 µM | > 11.5 µM
Cn1cc(-c2cc(N)n3nc(-c4c[nH]c5ccc(F)cc45)cc3n2)c2cc(Br)cnc21 | > 100 µM | > 100 µM
COc1ccc2c(c1)c(-c1cc3nc(-c4cn(C)c5ncc(Br)cc45)cc(N)n3n1)cn2C | 1.59 µM | 5.52 µM
COc1ccccc1Nc1nnc(-c2c[nH]c3ccccc23)o1 | 4.71 µM | > 100 µM
C=C1CCC2C3(C)COC(c4ccccc4F)OC3CCC2(C)C1C/C=C1/C(=O)OCC1O (centres undefined) | 9.98 µM | 22.1 µM
COc1ccc(C(=O)Nc2ccc(-c3ccc4c(c3)NC(=O)/C4=C\c3ccc[nH]3)cc2)cc1 | > 100 µM | > 100 µM
O=C(Nc1cccc(-n2cnc3cc(-c4ccc(O)cc4)ccc32)c1)C1CC1 | 0.694 µM | 38 µM
